From publication PMC10726135 come the findings set out here.

This is one part of the list. At the low end of the ranking the order means little. Measured with an extract: partners may take part in the binding.

In the assay the target is T1, HNF4alpha8 (COS-7 nuclear extract) (UniProt P41235-5).
T1 sequence: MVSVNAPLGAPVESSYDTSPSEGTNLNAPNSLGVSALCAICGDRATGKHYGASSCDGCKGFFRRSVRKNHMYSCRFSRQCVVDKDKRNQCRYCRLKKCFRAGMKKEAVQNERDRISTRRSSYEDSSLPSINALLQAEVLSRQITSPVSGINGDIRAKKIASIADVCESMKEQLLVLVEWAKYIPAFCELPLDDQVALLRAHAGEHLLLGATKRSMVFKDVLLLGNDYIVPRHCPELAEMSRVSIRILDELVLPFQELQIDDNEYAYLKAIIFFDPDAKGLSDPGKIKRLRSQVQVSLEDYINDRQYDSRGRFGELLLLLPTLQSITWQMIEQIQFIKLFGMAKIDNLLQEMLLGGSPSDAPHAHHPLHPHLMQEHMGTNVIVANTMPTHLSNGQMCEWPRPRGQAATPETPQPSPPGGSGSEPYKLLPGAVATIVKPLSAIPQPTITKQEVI
Briefly: protein-binding microarray. Conditions: COS-7 nuclear extract on double-stranded Agilent 4x180k PBM; binding buffer, salt, pH and temperature not given; high values mean tight binding; double strand, one strand shown; sequences stand for … in …GCCTAGGGAGATTAGAGTATCGGTCGA
Consider AAATCACAGATAAACCCCTGGAGCACAGAA, for which the binding signal (log2 normalized intensity) is -0.0397.

With TTATTTGCGCCTCCCTAGAGCAGCAGTAGG, the binding signal (log2 normalized intensity) was -1.18.

GGTAGATGGGGCCAGATTGAGAAACACATT: the binding signal (log2 normalized intensity) was -1.25.

As for ATCCTGTCAGACCAAGGCTGCTTAACAAAC, the binding signal (log2 normalized intensity) was -1.33.

Consider TGGGCAGGAGGGATCTGGCAGGGGCGCGGC, for which the binding signal (log2 normalized intensity) was -1.34.

On to AATGCGCAGAATTTCTTTTAATGTGTGCTT, for which the binding signal (log2 normalized intensity) was 0.136.

With CTTGGAGACAGTCACTCCCACCCTTCCTGT, the binding signal (log2 normalized intensity) came to 1.6.

TTCCTCTTCATATCAGTAAACCCCAATCAG: the binding signal (log2 normalized intensity) was 3.77.

Consider TGCCAGCCCCGAGATAACCCCTCTCCAAGC, for which the binding signal (log2 normalized intensity) was 4.43.

On to TTCTTTACCATGTGTTGGCACTTTGGACTT, for which the binding signal (log2 normalized intensity) stood at 6.94.

Take GCCAAGCAGGAGGTCAGAAACAGAAAGTCC: the binding signal (log2 normalized intensity) stood at 0.873.

On to TTGAGACCTAGAGGAGAGAGTAAATAATTG, for which the binding signal (log2 normalized intensity) was -1.32.

As for TCCTGCCTAACCACCTGACCACAACACACA, the binding signal (log2 normalized intensity) is -1.31.

Turning to CCACCTACTGACCAAATGGGAACATTCCTC, the binding signal (log2 normalized intensity) is -1.41.

On to ATAGAGAAGCCAGGGGTAAGTTTCTAACTA, for which the binding signal (log2 normalized intensity) was -1.32.

Regarding CATCACAATAGGGAAACAGCGAGAGTCCTC, the binding signal (log2 normalized intensity) was -1.22.

For TGGTCCTGCTCAAAGGGGAAAGAGGGGGAA, the binding signal (log2 normalized intensity) is -1.38.

With TCTGATAAGGAAGATAATGGGTCCGAAGGT, the binding signal (log2 normalized intensity) is 2.59.

With ACAGGTTCCCTCATGATTTAGTAAGTTCAA, the binding signal (log2 normalized intensity) was determined as 1.02.

With AGGAGGAGATAAGATCAGTATAGTTAGGGC, the binding signal (log2 normalized intensity) was -1.24.

On to CAGGGTCCAAAGGTGTCAAGAACATAGCCC, for which the binding signal (log2 normalized intensity) came to 3.57.

Turning to GCTCTGCGCAGGCGCAGTCCTCTCTCGCGA, the binding signal (log2 normalized intensity) is -1.34.

Consider GAAAAGGCAGCAGCTTGGAATGTCAGGAAC, for which the binding signal (log2 normalized intensity) is -1.34.

As to GGTTACACAGTATGTTAATGGCAGAATCAA, the binding signal (log2 normalized intensity) is -0.325.

In the case of TGAGTCACTTGGTTTTCACAACCTCCCTTT, the binding signal (log2 normalized intensity) is 1.07.

Consider CAGAGATTGGGACTATCAAATGTGGTGGGT, for which the binding signal (log2 normalized intensity) stood at 0.794.

On to CGTACTTTTCATCTGATCAGTGCCCATCTG, for which the binding signal (log2 normalized intensity) is 1.75.

Turning to AAGATTTCAGTAGCAAACCAATTCGCATAG, the binding signal (log2 normalized intensity) is -1.24.

AAAATATCTGATCGATATCCTAACCATGCC: the binding signal (log2 normalized intensity) is -1.01.

As for GCCTCCTGGCTGGGCAGGCTCCCTCCCTGG, the binding signal (log2 normalized intensity) was -1.24.

Turning to TATTATCTTTTTAATCAATAATCTTTGCCC, the binding signal (log2 normalized intensity) stood at 3.6.

Turning to TGGTCAGTGCATAGCTAAGCACCCAGATAA, the binding signal (log2 normalized intensity) was -1.26.

In the case of CTGACCTCTGCCTCGGCCACATTCCCCGAC, the binding signal (log2 normalized intensity) is 1.27.

On to CAGCAATAGGTCAGAGGACACCCGGGGTGG, for which the binding signal (log2 normalized intensity) was -0.977.

For CCCCTGGCAACACCCCAGTGTGTTGCATGC, the binding signal (log2 normalized intensity) amounted to 1.71.

On to CAGTGTCATTTACAGAATTTCTCAGATGCC, for which the binding signal (log2 normalized intensity) is -0.863.

For the sequence CACTTTGCTCCCTCCTTCAGTGCTCTGTTG, the binding signal (log2 normalized intensity) came out at 1.47.

As to GTCAAAAATCTTAAGGAGGAGTGCTAGAGA, the binding signal (log2 normalized intensity) was -1.3.

Regarding GGACCTTGCCCTTTAGTTATCTCTTCTTTC, the binding signal (log2 normalized intensity) is 5.12.

Consider AGTGCCCTTCCACTTAGGCTTGCAATGCGG, for which the binding signal (log2 normalized intensity) was -1.25.

On to TCGAGGCCTCTTTATCTCCTCCCCTTGAGA, for which the binding signal (log2 normalized intensity) turned out to be 2.75.

On to AGAGCAAAGATCATCTGGTGGCTTGAGTTG, for which the binding signal (log2 normalized intensity) worked out at 0.634.

Consider AGAGTCCGGGGCAAACAAGGGCAACTCTAA, for which the binding signal (log2 normalized intensity) is -1.3.

As for GGCCGTGAAGCCGTCCTGTCCTGGACTTTC, the binding signal (log2 normalized intensity) amounted to 4.47.

Take GAAGGAGAGTGACCTCTGCTTGAAGGCATT: the binding signal (log2 normalized intensity) was 1.78.

AGTAGCTCATTTATTATTTGTCTGGGTTAT: the binding signal (log2 normalized intensity) is 1.56.

As to TGGTGGGTCAAGGTGCAAAGAGATGGGGAG, the binding signal (log2 normalized intensity) came to 1.43.

On to TTTACTCAGAAAGGTCAGCGCTTTGGTAGG, for which the binding signal (log2 normalized intensity) came out at 0.273.

With CCTACATAGAGAGCAGTCTTGAGCGCAAAT, the binding signal (log2 normalized intensity) was -1.43.

Consider CACAGGGGAAACACAGACTCCAAAGAATGG, for which the binding signal (log2 normalized intensity) is -1.36.

Consider GTGTTGACCTCTGGACCTCATCTTCCTCCC, for which the binding signal (log2 normalized intensity) amounted to 5.2.

On to AGTCTTGGATCGGGATGATCAATGTGTAGT, for which the binding signal (log2 normalized intensity) came out at 1.65.

Turning to CTTTGAAATGTCCTGAGTGATTGTAGTGTC, the binding signal (log2 normalized intensity) was determined as 1.86.

For TGTCCCCAAGATTGAGGCCAGCAAAGGGCA, the binding signal (log2 normalized intensity) was 2.21.

Take ATCTTTGACCTGGAGCATGACCCTTTGCAG: the binding signal (log2 normalized intensity) is 3.64.

GCGGTCCGCAGCGCTGGTGGCTGCAAGGTT: the binding signal (log2 normalized intensity) is -0.996.

With CCCCCCGCCGCATCTACCAGCGTAATTCTG, the binding signal (log2 normalized intensity) was 2.62.

For GAGGTGCCAGAAACCTGACTTCCAATTTAC, the binding signal (log2 normalized intensity) is -1.22.

For CACCTCTCACCTGGATGTTTTGATGAACTT, the binding signal (log2 normalized intensity) came to 2.12.

CAGCTACACAAAGGCAGAGCACTAAATCTC: the binding signal (log2 normalized intensity) is -1.26.

As to CACCCTTCAGCAAATAGTGGGAGGTGGAAG, the binding signal (log2 normalized intensity) is -1.13.

For ATTCACCAGGCAATCAGCCTTAGGTATGCC, the binding signal (log2 normalized intensity) was -1.29.

Take TATTGTAAAAGAAAGTGAGCAGGCAGTGTC: the binding signal (log2 normalized intensity) is -0.316.

Regarding ATGGGCAAAGGACAATAATGAATAAGCACG, the binding signal (log2 normalized intensity) was -1.08.

Turning to TTTCCCCTAGTTACAACTGTAAACATCTAA, the binding signal (log2 normalized intensity) turned out to be 0.619.

On to GCCTCTTGACCCCTTGGCCCCGCTGTCCTG, for which the binding signal (log2 normalized intensity) came out at 4.65.

For the sequence TTAAGCAGCAGATAAGGCTAATCCTTACAC, the binding signal (log2 normalized intensity) was -1.35.

Take ACGTCGCTGCCGCAGATCCCCGCTCCCCTC: the binding signal (log2 normalized intensity) is 3.7.

For GTGCAAACTTTTTCCTTTTCTTATCTGTTC, the binding signal (log2 normalized intensity) came to 1.77.

CAAAGGCACAGATCATATGGCCCACAAAGC: the binding signal (log2 normalized intensity) is -1.28.

Regarding CAGGGGGGCGCCTACGGACGGGTAAGAGTC, the binding signal (log2 normalized intensity) was -1.3.

For TTTACCTGCCTGTGCTGTGGCTGCCAAGAC, the binding signal (log2 normalized intensity) is -1.26.

In the case of AGGTCCAAGCAGATGCTTTGAAGTGTAAAA, the binding signal (log2 normalized intensity) came to 0.082.
